{"source": "PubChem BioAssay AID504466", "about": "(National Center for Advancing Translational Sciences (NCATS), 2011)", "note": "Among all 330,000 compounds or so, about 4,200 (1.3%) were called active. The inconclusive results got no clear call from the source; some entries with a clear call stand among them for comparison. The call rests on the fitted dose curve; in most records, active means well fitted activation curve with a large enough effect; inconclusive means small, poorly fitted or top-dose-only effect; inactive means no such curve, though single readings can be large or run the other way. Where the call is inconclusive, the potency comes from a doubtful curve fit. Potency means the concentration at half of the fitted maximal effect; tags describe the fitted curve by direction and shape.", "data": [{"assay": "qHTS screen for small molecules that induce genotoxicity in human embryonic kidney (HEK293T) cells expressing luciferase-tagged ELG1; further: nearly all actives have a fitted effect of over 60% in size; on activity change, positive = activation: % of control where 0% means no effect", "details": "HEK293T ELG1-luciferase reporter, luminescence, 16 h; series mostly up to 46 µM; activity change, positive = activation: at the top concentration", "in_short": "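Quantitative HTS format in 1536-well plates. HEK293T ELG1-luciferase reporter cells receive test compound and are incubated 16 hr at 37 °C, 5% CO2; ONE-Glo added, 30 min room temperature, then luminescence read.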", "values": [{"smiles": "CCOc1ccc(-c2nc(-c3cccnc3)no2)cc1OCC", "activity change, positive = activation": "inactive: 8.9%"}, {"smiles": "Cc1ccc(C(=O)N/C(=C\\c2ccc(-c3cc(Cl)ccc3Cl)o2)C(=O)NCc2cccnc2)cc1", "activity change, positive = activation": "inactive: 4.78%"}, {"smiles": "CSc1nc2ccc3nc(NC(=O)c4ccccc4)sc3c2s1", "Potency": "inconclusive: 7.31 µM [activator, partial curve]"}, {"smiles": "COc1ccc(C)cc1NC(=O)C(C)N1CCOCC1", "note": "(centres undefined)", "activity change, positive = activation": "inactive: 0.71%"}, {"smiles": "Cc1ccc(-c2ccc(CCC(=O)O)n2NC(=O)c2cccs2)cc1", "Potency": "inconclusive: 29.1 µM [activator, partial curve, poor fit]"}, {"smiles": "Cc1ccc(C(=O)c2cc3ccccc3o2)cc1[N+](=O)[O-]", "Potency": "inconclusive: 23.1 µM [activator, partial curve, poor fit]"}, {"smiles": "O=C(NCc1ccccc1)c1cccc(COc2ccccc2Cl)c1", "Potency": "inconclusive: 4.11 µM [activator, full curve]"}, {"smiles": "O=C(COC(=O)C12CC3CC(CC(C3)C1)C2)Nc1ccc([N+](=O)[O-])cc1Cl", "activity change, positive = activation": "inactive: -0.382%"}, {"smiles": "O=C(O)CCSc1ccccn1", "activity change, positive = activation": "inactive: 0.374%"}, {"smiles": "O=C(Nc1ccc2nsnc2c1)c1ccc2c(c1)OCO2", "Potency": "active: 1.16 µM"}, {"smiles": "COc1ccc(-c2cc(C)no2)cc1S(=O)(=O)Nc1ccccc1", "Potency": "inconclusive: 23.1 µM [activator, partial curve, poor fit]"}, {"smiles": "CSc1ncc(Cl)c(C(=O)Nc2ccc(S(=O)(=O)Nc3nccc(C)n3)cc2)n1", "Potency": "active: 6.51 µM"}, {"smiles": "COc1ccc(C(=O)NC(=S)NCc2ccc(-c3nc4ccccc4o3)cc2)cc1OC", "Potency": "inconclusive: 23.1 µM [activator, single point]"}, {"smiles": "O=C(NCCOc1ccccc1)c1ccc2c(c1)OCO2", "Potency": "inconclusive: 0.366 µM [activator, full curve]"}, {"smiles": "Cc1ccc(N=Nc2c(O)[nH]c3ccc(F)cc23)cc1", "Potency": "inconclusive: 18.3 µM [activator, partial curve, poor fit]"}, {"smiles": "Cc1ccc(NC(=O)Cc2ccccc2)cc1S(=O)(=O)N1CCOCC1", "activity change, positive = activation": "inactive: 0.455%"}, {"smiles": "O=[N+]([O-])c1ccc(NNC(=S)Nc2ccccc2)cc1", "Potency": "inconclusive: 17.8 µM [activator, partial curve, poor fit]"}, {"smiles": "CN(C)S(=O)(=O)c1ccc(NC(=O)c2ccc(Br)o2)cc1", "activity change, positive = activation": "inactive: 13.2%"}, {"smiles": "CCOC(=O)N1CCN(c2c(NCCCOC(C)C)c(=O)c2=O)CC1", "activity change, positive = activation": "inactive: 0.432%"}, {"smiles": "COc1cccc(NC(=O)Cn2c3ccc(OC)cc3c3nc4n(c(=O)c32)CCS4)c1", "Potency": "inconclusive: 32.6 µM [activator, partial curve, poor fit]"}, {"smiles": "COc1cn(-c2ccccc2)nc1C(=O)Nc1ccc(C)cc1Cl", "activity change, positive = activation": "inactive: 27.3%"}, {"smiles": "O=C(Nc1ccc(N2CCCCC2)cc1)C(Cl)c1ccccc1", "note": "(centres undefined)", "Potency": "active: 10.3 µM"}, {"smiles": "CCC1(C)NC(=O)N(/N=C/c2ccc(C)s2)C1=O", "note": "(centres undefined)", "Potency": "inconclusive: 16.4 µM [activator, partial curve, poor fit]"}, {"smiles": "Cc1ccc(Cn2c(=O)n(C)c(=O)c3sccc32)cc1", "Potency": "inconclusive: 32.6 µM [activator, partial curve, poor fit]"}, {"smiles": "COc1cccc(OC(=O)c2cc3ccccc3oc2=O)c1", "activity change, positive = activation": "inactive: 11.4%"}, {"smiles": "CC[C@@]1(C(=O)OC)N[C@H](CN(C)S(=O)(=O)c2ccccc2)[C@@H]2C(=O)N(C)C(=O)[C@@H]21", "activity change, positive = activation": "inactive: 1.08%"}, {"smiles": "COc1ccc(C(=O)NCc2ccon2)cc1OC1CCN(C(C)C)CC1", "activity change, positive = activation": "inactive: 3.73%"}, {"smiles": "O=C(Cc1noc2ccccc12)Nc1ccccn1", "activity change, positive = activation": "inactive: 17%"}, {"smiles": "CCOC(=O)c1ccc(NC(=O)c2ccc(CN3CCOCC3)cc2)cc1", "Potency": "inconclusive: 2.91 µM [activator, single point]"}, {"smiles": "O=C(c1ccc2nc(N3CCCCC3)sc2c1)N1CCN(Cc2ccc3c(c2)OCO3)CC1", "Potency": "active: 23.1 µM"}, {"smiles": "COCC(C)NC(C(=O)Nc1ccc(C)c(Cl)c1)c1ccccc1", "note": "(centres undefined)", "activity change, positive = activation": "inactive: 0.494%"}, {"smiles": "O=C1NC(=Nc2ccccc2)S/C1=C\\c1cccs1", "Potency": "inconclusive: 16.4 µM [activator, partial curve]"}, {"smiles": "O=C(COC(=O)C1CCN(S(=O)(=O)c2cccc3cccnc23)CC1)c1ccc(F)cc1", "activity change, positive = activation": "inactive: -0.702%"}, {"smiles": "CC(=Nc1ccccc1)C1=C(O)CSC1=O", "Potency": "inconclusive: 23.1 µM [activator, single point]"}, {"smiles": "Cc1cc(C)c(NC(=O)C2CCCN(S(=O)(=O)c3c(C)noc3/C=C/N(C)C)C2)c(C)c1", "note": "(centres undefined)", "activity change, positive = activation": "inactive: -4.34%"}, {"smiles": "c1ccc(Nc2cccc(Nc3ccccc3)n2)cc1", "Potency": "inconclusive: 20.6 µM [activator, single point]"}, {"smiles": "Oc1ccc(/C=N/Nc2ncc(Br)cn2)c(O)c1", "Potency": "active: 14.6 µM"}, {"smiles": "COc1ccc(-n2ncc3c2CC(C)(C)CC3NC(=O)c2c(C)cc(=O)oc2C)cc1", "note": "(centres undefined)", "activity change, positive = activation": "inactive: 0.823%"}, {"smiles": "COc1ccc(-c2cn(-c3ccccc3)c(=S)[nH]2)cc1OC", "Potency": "inconclusive: 16.4 µM [activator, partial curve, poor fit]"}, {"smiles": "Nc1nnc(COc2ccc(Br)cc2Br)s1", "Potency": "inconclusive: 11.6 µM [activator, partial curve]"}, {"smiles": "CCn1nc(C)c(CNC(=O)Nc2ccc3c(c2)OCO3)c1C", "Potency": "inconclusive: 18.3 µM [activator, partial curve, poor fit]"}, {"smiles": "O=C(Nc1nnc(CCc2ccccc2)s1)c1ccco1", "Potency": "inconclusive: 25.9 µM [activator, partial curve, poor fit]"}, {"smiles": "NC(=O)c1ccccc1-c1nc(-c2ccccc2)no1", "Potency": "inconclusive: 11.2 µM [activator, partial curve, poor fit]"}, {"smiles": "N=c1n(CC(=O)c2ccc([N+](=O)[O-])cc2)c2ccccc2n1Cc1ccccc1Cl", "Potency": "inconclusive: 20.6 µM [activator, single point]"}, {"smiles": "O=C(NNC(=O)c1ccc(NC(=O)c2ccccc2)cc1)c1ccc(F)cc1", "Potency": "active: 18.3 µM"}, {"smiles": "Cc1ccc(-c2cc(C(=O)NCCCN3CCCC3)c3ccccc3n2)cc1C", "Potency": "inconclusive: 18.3 µM [activator, partial curve, poor fit]"}, {"smiles": "CSc1ccc(/C=C/C(=O)NC(=O)c2ccccc2O)cc1", "Potency": "active: 9.2 µM"}, {"smiles": "Fc1ccc(CSc2nnc(-c3cccs3)o2)cc1", "Potency": "inconclusive: 14.6 µM [activator, partial curve, poor fit]"}, {"smiles": "CC1CCC(NC(=O)c2ccc(N3CCCC3=O)cc2)CC1", "note": "(centres undefined)", "Potency": "inconclusive: 29.1 µM [activator, partial curve, poor fit]"}, {"smiles": "Cc1cc(C(=O)N/N=C/c2cccc([N+](=O)[O-])c2)c(C)n1-c1ccccc1", "Potency": "inconclusive: 18.4 µM [activator, partial curve, poor fit]"}, {"smiles": "CCCCOC(=O)c1cc(=O)[nH]c2ccccc12", "Potency": "inconclusive: 23.1 µM [activator, partial curve, poor fit]"}, {"smiles": "FC(F)(F)c1cnc2c(-c3ccccc3)n[nH]c2c1", "Potency": "inconclusive: 18.3 µM [activator, single point]"}, {"smiles": "CCc1nc(SCc2ccc(OC)cc2)n[nH]1", "Potency": "inconclusive: 10 µM [activator, partial curve, poor fit]"}, {"smiles": "CCOC(=O)c1cnc(Nc2nc3ccccc3o2)nc1CN1CCN(C)CC1", "Potency": "inconclusive: 20.6 µM [activator, partial curve, poor fit]"}, {"smiles": "COc1cc2nc(CN(CCC(C)C)Cc3nc4cc(OC)c(OC)cc4c(=O)[nH]3)[nH]c(=O)c2cc1OC", "activity change, positive = activation": "inactive: -0.211%"}, {"smiles": "CCCC(=O)NNc1c2ccccc2nc2ccccc12", "activity change, positive = activation": "inactive: -1.76%"}, {"smiles": "COc1cc(C)ccc1OCCCOc1ccccc1Cl", "Potency": "inconclusive: 9.2 µM [activator, partial curve, poor fit]"}, {"smiles": "CC(C)Sc1ccccc1C(=O)Nc1ccc2c(c1)n(C)c(=O)n2C", "Potency": "inconclusive: 10.3 µM [activator, single point]"}, {"smiles": "Cc1ccc(N=Cc2c(O)c3ccccc3n(C)c2=O)cc1", "activity change, positive = activation": "inactive: 2.5%"}, {"smiles": "Cc1nn2cc(-c3ccc(Cl)cc3)cnc2c1Br", "Potency": "inconclusive: 9.2 µM [activator, partial curve]"}, {"smiles": "CCCCc1ccc(NC(=O)c2cnccn2)cc1", "Potency": "inconclusive: 0.461 µM [activator, partial curve]"}, {"smiles": "FC(F)(F)Oc1ccc(-c2cn3cccnc3n2)cc1", "Potency": "inconclusive: 18.3 µM [activator, partial curve]"}, {"smiles": "N#C/C(C(=O)N1CCCCC1)=C1\\Nc2ccccc2S1", "Potency": "inconclusive: 3.55 µM [activator, partial curve]"}, {"smiles": "COc1ccc(C(=O)COC(=O)c2cccs2)cc1", "Potency": "inconclusive: 8.2 µM [activator, single point]"}, {"smiles": "CCCC(c1nnnn1Cc1cccs1)N1CCN(c2nc3ccccc3s2)CC1", "note": "(centres undefined)", "activity change, positive = activation": "inactive: -18.1%"}, {"smiles": "Clc1ccccc1-c1nnc2sc(-c3ccc4c(c3)OCO4)nn12", "Potency": "inconclusive: 35.5 µM [activator, single point]"}, {"smiles": "COc1ccccc1OCCNC(=O)CNC(=O)c1ccc2c(c1)OCO2", "activity change, positive = activation": "inactive: 0.523%"}, {"smiles": "Cc1ccc(C(C)C)c(OCc2ccc(C(=O)N/N=C/c3ccc(O)cc3O)cc2)c1", "Potency": "inconclusive: 11.6 µM [activator, partial curve]"}, {"smiles": "COc1cc(C(=O)Nc2nc3ccccc3[nH]2)ccc1OC(F)F", "Potency": "inconclusive: 1.64 µM [activator, full curve, poor fit]"}, {"smiles": "CC1(C)CC(=O)CC(=O)/C1=N\\Nc1c(Cl)cc(Cl)cc1Cl", "Potency": "inconclusive: 25.9 µM [activator, partial curve, poor fit]"}, {"smiles": "CC(=O)NC(NC(C)=O)c1ccc(N(C)C)cc1", "activity change, positive = activation": "inactive: 2.02%"}, {"smiles": "O=C(c1ccccc1Cl)N1CCN(C(=O)C2CCCO2)CC1", "note": "(centres undefined)", "activity change, positive = activation": "inactive: -0.194%"}, {"smiles": "Cc1cc(Cl)c2oc(C(=O)NCCN3CCCCC3CO)c(C)c2c1", "note": "(centres undefined)", "Potency": "inconclusive: 16.4 µM [activator, partial curve, poor fit]"}, {"smiles": "Cc1ccnc(NC(=O)c2ccc(S(=O)(=O)N3CCC(C)CC3)cc2)c1", "Potency": "active: 0.73 µM"}]}]}
